{"source": "the antibiotic and cytotoxicity screens of Wong et al. (2023)", "note": "This is one part of the list.", "data": [{"system": "HSkMC (human skeletal muscle cells)", "test": "cytotoxicity call (relative viability < 0.9)", "details": "10 µM", "values": [{"smiles": "N=C(N)N", "cytotoxicity call": "inactive"}, {"smiles": "CC(=O)N[C@@H](CCCNC(=N)N)C(=O)N[C@H]1CSSC[C@@H](C(N)=O)NC(=O)[C@H](Cc2c[nH]c3ccccc23)NC(=O)[C@H](CCCNC(=N)N)NC(=O)[C@@H](Cc2ccccc2)NC(=O)[C@H](Cc2cnc[nH]2)NC(=O)[C@@H](C)NC1=O", "cytotoxicity call": "inactive"}, {"smiles": "CC(C)NC(=O)N(C)C[C@H]1Oc2cc(-c3ccccc3F)ccc2S(=O)(=O)N([C@H](C)CO)C[C@@H]1C", "cytotoxicity call": "inactive"}, {"smiles": "NCC[C@H]1CC[C@@H](NC(=O)c2ccccc2F)[C@@H](CO)O1", "cytotoxicity call": "inactive"}, {"smiles": "C[C@H](O)C#Cc1ccc2c(c1)O[C@H](CN(C)C(=O)CN(C)C)[C@H](C)CN([C@H](C)CO)S2(=O)=O", "cytotoxicity call": "inactive"}, {"smiles": "Cc1noc(C)c1NC(=O)N(C)C[C@@H]1OCCCC[C@@H](C)Oc2ccc(NC(=O)C3CCCCC3)cc2C(=O)N([C@H](C)CO)C[C@H]1C", "cytotoxicity call": "inactive"}, {"smiles": "C[C@@H]1CN([C@@H](C)CO)C(=O)c2cccc(NC(=O)Nc3ccccc3)c2O[C@H]1CN(C)Cc1ccc(C(=O)Nc2ccccc2N)cc1", "cytotoxicity call": "inactive"}, {"smiles": "C[C@H]1CCCCO[C@H](CN(C)C(=O)Nc2ccccc2)[C@@H](C)CN([C@@H](C)CO)C(=O)c2cc(NC(=O)C3CCCCC3)ccc2O1", "cytotoxicity call": "inactive"}, {"smiles": "CC(C)NC(=O)Nc1cccc2c1O[C@H](CN(C)Cc1ccc(Oc3ccccc3)cc1)[C@@H](C)CN([C@H](C)CO)C2=O", "cytotoxicity call": "inactive"}, {"smiles": "C[C@@H]1CN([C@H](C)CO)C(=O)Cc2cc(NC(=O)Cc3ccccc3)ccc2O[C@@H]1CN(C)Cc1ccc(-c2ccccc2)cc1", "cytotoxicity call": "inactive"}, {"smiles": "C#CCN(O[C@@H](/C=C/[C@@H](O)CCn1cc(-c2cccc(/C=C/C(=O)NO)c2)nn1)C1CC1)[C@@H](Cc1ccccc1)C(=O)OC", "cytotoxicity call": "inactive"}, {"smiles": "C[C@@H]1CN([C@H](C)CO)C(=O)c2cc(NC(=O)Nc3ccc(F)cc3)ccc2O[C@@H](C)CCCCO[C@@H]1CN(C)C(=O)CCCN(C)C", "cytotoxicity call": "inactive"}, {"smiles": "CCCN(C)C[C@H]1OCCCC[C@@H](C)Oc2ccc(NC(=O)c3ccccc3)cc2C(=O)N([C@H](C)CO)C[C@@H]1C", "cytotoxicity call": "inactive"}, {"smiles": "CCCCCc1ccccn1", "cytotoxicity call": "inactive"}, {"smiles": "Cc1ccc(S(=O)(=O)Nc2ccc3c(c2)C(=O)N([C@@H](C)CO)C[C@@H](C)[C@@H](CN(C)C(=O)Nc2c(C)noc2C)OCCCC[C@@H](C)O3)cc1", "cytotoxicity call": "inactive"}, {"smiles": "COc1ccc(S(=O)(=O)N(C)C[C@H]2Oc3ccc(NS(=O)(=O)c4ccc(F)cc4)cc3C(=O)N([C@H](C)CO)C[C@@H]2C)cc1", "cytotoxicity call": "inactive"}, {"smiles": "C[C@H]1CN([C@@H](C)CO)C(=O)c2cccc(NC(=O)c3cnccn3)c2O[C@@H]1CN(C)C(=O)Nc1ccc2c(c1)OCO2", "cytotoxicity call": "inactive"}, {"smiles": "C[C@@H]1CCCCO[C@@H](CN(C)Cc2ccc(Cl)c(Cl)c2)[C@H](C)CN([C@@H](C)CO)C(=O)c2cc(NC(=O)Cc3ccccc3)ccc2O1", "cytotoxicity call": "inactive"}, {"smiles": "CO[C@H]1/C=C/C[C@H](C)[C@@H](C)S(=O)(=O)NC(=O)c2ccc3c(c2)N(C[C@@H]2CC[C@H]21)C[C@@]1(CCCc2cc(Cl)ccc21)CO3", "cytotoxicity call": "active"}, {"smiles": "CCS(=O)(=O)N1CC[C@]2(CC1)CN([C@@H](CO)c1c2c2ccc(cc2n1C)OC)C(=O)c1cccc(c1)F", "cytotoxicity call": "inactive"}, {"smiles": "Cc1c(-c2ccccc2)n(C[C@@H](O)CN)c2ccccc12", "cytotoxicity call": "inactive"}, {"smiles": "C[C@@H]1CN([C@@H](C)CO)C(=O)c2cc(NS(=O)(=O)c3ccc(F)cc3)ccc2O[C@@H](C)CCCCO[C@H]1CN(C)C(=O)Nc1ccc(F)cc1", "cytotoxicity call": "inactive"}, {"smiles": "COC(=O)C1=C[C@@H](O)[C@@H](O)[C@H](O[C@@H]2O[C@H](COC(=O)/C=C/c3ccccc3)[C@@H](O)[C@H](O)[C@H]2O)C1", "cytotoxicity call": "inactive"}, {"smiles": "C[C@H](CO)N1C[C@H](C)[C@@H](CN(C)S(=O)(=O)c2ccccc2)Oc2ccc(NS(=O)(=O)c3cccs3)cc2C1=O", "cytotoxicity call": "inactive"}, {"smiles": "Cc1c(C)n2c3c(=O)n(C)c(=O)n(C)c3nc2n1CCO", "cytotoxicity call": "inactive"}, {"smiles": "O=C(O)[C@@H]1CC(=O)N(Cc2cccnc2)C1", "cytotoxicity call": "inactive"}, {"smiles": "C[C@@H]1CCCCO[C@@H](CN(C)Cc2ccc3c(c2)OCO3)[C@@H](C)CN([C@H](C)CO)C(=O)c2cc(NC(=O)Cc3ccccc3)ccc2O1", "cytotoxicity call": "inactive"}, {"smiles": "CCC(=O)NCCN1CCN(C(=O)CC)CC1", "cytotoxicity call": "inactive"}, {"smiles": "C[C@@H]1CN([C@H](C)CO)C(=O)c2cc(NC(=O)C3CC3)ccc2O[C@H]1CN(C)Cc1ccc(Oc2ccccc2)cc1", "cytotoxicity call": "inactive"}, {"smiles": "CC(C)NC(=O)N(C)C[C@H]1Oc2ccc(NS(=O)(=O)c3ccccc3)cc2C(=O)N([C@H](C)CO)C[C@H]1C", "cytotoxicity call": "inactive"}]}, {"system": "HepG2", "test": "cytotoxicity call (relative viability < 0.9)", "details": "10 µM", "values": [{"smiles": "COCC(=O)N[C@@H]1C=C[C@@H](CC(=O)N2CCCCC2)O[C@@H]1CO", "cytotoxicity call": "inactive"}, {"smiles": "CN1C(=O)c2cc(NC(=O)Nc3cccc(C#N)c3)ccc2OC[C@H]2O[C@@H](CC(=O)Nc3ccc4c(c3)CCC4)CC[C@@H]21", "cytotoxicity call": "inactive"}, {"smiles": "C[C@H]1CN([C@@H](C)CO)C(=O)c2cc(NC(=O)CCN3CCOCC3)ccc2O[C@H]1CN(C)S(=O)(=O)c1cccs1", "cytotoxicity call": "inactive"}, {"smiles": "C[C@H](CO)N1C[C@H](C)[C@@H](CN(C)C(=O)Nc2ccc(F)cc2)OCCCC[C@H](C)Oc2ccc(NS(=O)(=O)c3cccs3)cc2C1=O", "cytotoxicity call": "inactive"}, {"smiles": "C[C@H]1CCCCO[C@@H](CN(C)C(=O)Nc2ccc(C(F)(F)F)cc2)[C@@H](C)CN([C@@H](C)CO)C(=O)c2cc(NS(=O)(=O)c3ccc(F)cc3)ccc2O1", "cytotoxicity call": "inactive"}, {"smiles": "C[C@H](CO)N1C[C@H](C)[C@H](CN(C)S(=O)(=O)c2cccs2)Oc2c(NC(=O)C3CC3)cccc2C1=O", "cytotoxicity call": "inactive"}, {"smiles": "C[C@H](CO)N1C[C@H](C)[C@@H](CN(C)C(=O)Nc2cccc3ccccc23)Oc2c(NC(=O)Nc3ccc(C(F)(F)F)cc3)cccc2C1=O", "cytotoxicity call": "inactive"}, {"smiles": "Cc1noc(C)c1NC(=O)Nc1ccc2c(c1)C(=O)N([C@H](C)CO)C[C@@H](C)[C@@H](CN(C)Cc1ccc(Cl)c(Cl)c1)O2", "cytotoxicity call": "inactive"}, {"smiles": "COc1ccc(CC[C@@H](OC(=O)[C@H]2CCCCN2C(=O)Cc2ccccc2)c2cccc(OCC(=O)O)c2)cc1OC", "cytotoxicity call": "active"}, {"smiles": "CC(C)N(C[C@H]1O[C@@H](n2cnc3c(N)ncnc32)[C@H](O)[C@@H]1O)[C@H]1C[C@@H](CCc2nc3ccc(C(C)(C)C)cc3[nH]2)C1", "cytotoxicity call": "active"}, {"smiles": "N=C(N)N", "cytotoxicity call": "inactive"}, {"smiles": "CC(=O)N[C@@H](CCCNC(=N)N)C(=O)N[C@H]1CSSC[C@@H](C(N)=O)NC(=O)[C@H](Cc2c[nH]c3ccccc23)NC(=O)[C@H](CCCNC(=N)N)NC(=O)[C@@H](Cc2ccccc2)NC(=O)[C@H](Cc2cnc[nH]2)NC(=O)[C@@H](C)NC1=O", "cytotoxicity call": "inactive"}, {"smiles": "CC(C)NC(=O)N(C)C[C@H]1Oc2cc(-c3ccccc3F)ccc2S(=O)(=O)N([C@H](C)CO)C[C@@H]1C", "cytotoxicity call": "inactive"}, {"smiles": "NCC[C@H]1CC[C@@H](NC(=O)c2ccccc2F)[C@@H](CO)O1", "cytotoxicity call": "inactive"}, {"smiles": "C[C@H](O)C#Cc1ccc2c(c1)O[C@H](CN(C)C(=O)CN(C)C)[C@H](C)CN([C@H](C)CO)S2(=O)=O", "cytotoxicity call": "inactive"}, {"smiles": "Cc1noc(C)c1NC(=O)N(C)C[C@@H]1OCCCC[C@@H](C)Oc2ccc(NC(=O)C3CCCCC3)cc2C(=O)N([C@H](C)CO)C[C@H]1C", "cytotoxicity call": "inactive"}, {"smiles": "C[C@@H]1CN([C@@H](C)CO)C(=O)c2cccc(NC(=O)Nc3ccccc3)c2O[C@H]1CN(C)Cc1ccc(C(=O)Nc2ccccc2N)cc1", "cytotoxicity call": "inactive"}, {"smiles": "C[C@H]1CCCCO[C@H](CN(C)C(=O)Nc2ccccc2)[C@@H](C)CN([C@@H](C)CO)C(=O)c2cc(NC(=O)C3CCCCC3)ccc2O1", "cytotoxicity call": "inactive"}, {"smiles": "CC(C)NC(=O)Nc1cccc2c1O[C@H](CN(C)Cc1ccc(Oc3ccccc3)cc1)[C@@H](C)CN([C@H](C)CO)C2=O", "cytotoxicity call": "inactive"}, {"smiles": "C[C@@H]1CN([C@H](C)CO)C(=O)Cc2cc(NC(=O)Cc3ccccc3)ccc2O[C@@H]1CN(C)Cc1ccc(-c2ccccc2)cc1", "cytotoxicity call": "active"}, {"smiles": "C#CCN(O[C@@H](/C=C/[C@@H](O)CCn1cc(-c2cccc(/C=C/C(=O)NO)c2)nn1)C1CC1)[C@@H](Cc1ccccc1)C(=O)OC", "cytotoxicity call": "inactive"}, {"smiles": "C[C@@H]1CN([C@H](C)CO)C(=O)c2cc(NC(=O)Nc3ccc(F)cc3)ccc2O[C@@H](C)CCCCO[C@@H]1CN(C)C(=O)CCCN(C)C", "cytotoxicity call": "inactive"}, {"smiles": "CCCN(C)C[C@H]1OCCCC[C@@H](C)Oc2ccc(NC(=O)c3ccccc3)cc2C(=O)N([C@H](C)CO)C[C@@H]1C", "cytotoxicity call": "inactive"}, {"smiles": "CCCCCc1ccccn1", "cytotoxicity call": "inactive"}, {"smiles": "Cc1ccc(S(=O)(=O)Nc2ccc3c(c2)C(=O)N([C@@H](C)CO)C[C@@H](C)[C@@H](CN(C)C(=O)Nc2c(C)noc2C)OCCCC[C@@H](C)O3)cc1", "cytotoxicity call": "inactive"}, {"smiles": "COc1ccc(S(=O)(=O)N(C)C[C@H]2Oc3ccc(NS(=O)(=O)c4ccc(F)cc4)cc3C(=O)N([C@H](C)CO)C[C@@H]2C)cc1", "cytotoxicity call": "inactive"}, {"smiles": "C[C@H]1CN([C@@H](C)CO)C(=O)c2cccc(NC(=O)c3cnccn3)c2O[C@@H]1CN(C)C(=O)Nc1ccc2c(c1)OCO2", "cytotoxicity call": "inactive"}, {"smiles": "C[C@@H]1CCCCO[C@@H](CN(C)Cc2ccc(Cl)c(Cl)c2)[C@H](C)CN([C@@H](C)CO)C(=O)c2cc(NC(=O)Cc3ccccc3)ccc2O1", "cytotoxicity call": "active"}, {"smiles": "CO[C@H]1/C=C/C[C@H](C)[C@@H](C)S(=O)(=O)NC(=O)c2ccc3c(c2)N(C[C@@H]2CC[C@H]21)C[C@@]1(CCCc2cc(Cl)ccc21)CO3", "cytotoxicity call": "inactive"}, {"smiles": "CCS(=O)(=O)N1CC[C@]2(CC1)CN([C@@H](CO)c1c2c2ccc(cc2n1C)OC)C(=O)c1cccc(c1)F", "cytotoxicity call": "inactive"}, {"smiles": "Cc1c(-c2ccccc2)n(C[C@@H](O)CN)c2ccccc12", "cytotoxicity call": "active"}, {"smiles": "C[C@@H]1CN([C@@H](C)CO)C(=O)c2cc(NS(=O)(=O)c3ccc(F)cc3)ccc2O[C@@H](C)CCCCO[C@H]1CN(C)C(=O)Nc1ccc(F)cc1", "cytotoxicity call": "inactive"}, {"smiles": "COC(=O)C1=C[C@@H](O)[C@@H](O)[C@H](O[C@@H]2O[C@H](COC(=O)/C=C/c3ccccc3)[C@@H](O)[C@H](O)[C@H]2O)C1", "cytotoxicity call": "inactive"}]}]}
